# In the supplement of paper PMC8728848:
# The list shows a part of the results.
# B1: GS14009A-pdi-495-27-495 (Parabacteroides distasonis) (protein)
# chain: FEEVNTDPDSPTDVPTTNLLAYSLYYTSYRLYDRWFAMDEPMTFCGYASKMTYIDESRYNFRTGVQDTNWEYLYRILNNLKDIEKRATFNETPNMLNVSKVMQVHLMQVATDRWRDVPYTDAAKMTDGILQPKYDKQEDIYPGLLATLKEAADGFADGGSDDLGEGDLLFGGDIEKWQRYCNSMRLRLAMRISEVSPALAKETVEEVMGNPTKYPIMESNDDNAFFWWIGTDPNYYEPMADGYRTRKTEYCAADVIVDHMNTREDPRRSSYFQPTKESVEAGEPKYVGYTIGAKANAVASKYSIWGARFFTDLAGFSPYMRVAEPWFCVAEASMLGWNTGISAEDAYNKAVTYSMEENSVSAEDIADYLANAGKFTNDKKQIYYEEWVAMFKQGMEGWSLYRRTGVPDNLYPAPGRPANYSNHNVPPFRSPYPDKERNLNNANCAPFDAEVVDNLWGKQMWWDTRTGVH
# Experiments:
# Test in all cases: glycan array binding signal (z-score within array); higher = stronger binding
# Details in all cases: glycan notation: IUPAC condensed, linker removed
# [1] = target: Glc(b1-6)Glc
# In short: (§1)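 Columns mapping to the same glycan were averaged after glycan names were converted to IUPAC-condensed notation. The data come from 3228 arrays in the Consortium for Functional Glycomics database, limited to those with an available protein sequence. Binding is reported as a within-array Z-score averaged across arrays of one protein sequence and across linkers.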
# [2] = target: GlcA(b1-3)Gal
# In short: as §1
# [3] = target: GlcA(b1-3)GlcNAc
# In short: as §1
# [4] = target: GlcA(b1-6)Gal
# In short: as §1
# [5] = target: GlcA3S(b1-3)Gal(b1-4)GlcNAc(b1-2)Man
# In short: as §1
# [6] = target: GlcA3S(b1-3)Gal(b1-4)GlcNAc(b1-3)Gal(b1-4)Glc
# In short: as §1
# [7] = target: GlcNAc(a1-3)Gal(b1-4)GlcNAc
# In short: as §1
# [8] = target: GlcNAc(a1-4)Gal(b1-3)GlcNAc
# In short: as §1
# [9] = target: GlcNAc(a1-4)Gal(b1-4)GalNAc
# In short: as §1
# [10] = target: GlcNAc(a1-4)Gal(b1-4)GlcNAc
# In short: as §1
# [11] = target: GlcNAc(a1-4)Gal(b1-4)GlcNAc(b1-3)Gal(b1-4)Glc
# In short: as §1
# [12] = target: GlcNAc(a1-4)Gal(b1-4)GlcNAc(b1-3)Gal(b1-4)GlcNAc
# In short: as §1
# [13] = target: GlcNAc(a1-4)Gal(b1-4)GlcNAc(b1-3)Gal(b1-4)GlcNAc(b1-3)Gal(b1-4)GlcNAc
# In short: as §1
# [14] = target: GlcNAc(a1-4)Gal(b1-4)GlcNAc(b1-3)Gal(b1-4)[Fuc(a1-3)]GlcNAc(b1-3)Gal(b1-4)[Fuc(a1-3)]GlcNAc
# In short: as §1
# [15] = target: GlcNAc(a1-6)Gal(b1-4)GlcNAc
# In short: as §1
# [16] = target: GlcNAc(b1-2)Gal(b1-3)GalNAc
# In short: as §1
# [17] = target: GlcNAc(b1-2)Man(a1-3)[GlcNAc(b1-2)Man(a1-6)]Man(b1-4)GlcNAc(b1-4)GlcNAc
# In short: as §1
# [18] = target: GlcNAc(b1-2)Man(a1-3)[GlcNAc(b1-2)Man(a1-6)]Man(b1-4)GlcNAc(b1-4)[Fuc(a1-6)]GlcNAc
# In short: as §1
# [19] = target: GlcNAc(b1-2)Man(a1-3)[GlcNAc(b1-4)][GlcNAc(b1-2)Man(a1-6)]Man(b1-4)GlcNAc(b1-4)GlcNAc
# In short: as §1
# [20] = target: GlcNAc(b1-2)Man(a1-3)[GlcNAc(b1-4)][GlcNAc(b1-2)Man(a1-6)]Man(b1-4)GlcNAc(b1-4)[Fuc(a1-6)]GlcNAc
# In short: as §1
# [21] = target: GlcNAc(b1-2)[GlcNAc(b1-4)]Man(a1-3)[GlcNAc(b1-2)Man(a1-6)]Man(b1-4)GlcNAc(b1-4)GlcNAc
# In short: as §1
# [22] = target: GlcNAc(b1-2)[GlcNAc(b1-4)]Man(a1-3)[GlcNAc(b1-4)][GlcNAc(b1-2)Man(a1-6)]Man(b1-4)GlcNAc(b1-4)GlcNAc
# In short: as §1
# [23] = target: GlcNAc(b1-2)[GlcNAc(b1-4)]Man(a1-3)[GlcNAc(b1-4)][GlcNAc(b1-2)[GlcNAc(b1-6)]Man(a1-6)]Man(b1-4)GlcNAc(b1-4)GlcNAc
# In short: as §1
# [24] = target: GlcNAc(b1-2)[GlcNAc(b1-4)]Man(a1-3)[GlcNAc(b1-4)][GlcNAc(b1-2)[GlcNAc(b1-6)]Man(a1-6)]Man(b1-4)GlcNAc(b1-4)[Fuc(a1-6)]GlcNAc
# In short: as §1
# [25] = target: GlcNAc(b1-2)[GlcNAc(b1-6)]Man(a1-6)[GlcNAc(b1-2)Man(a1-3)]Man(b1-4)GlcNAc(b1-4)GlcNAc
# In short: as §1
# [26] = target: GlcNAc(b1-2)[GlcNAc(b1-6)]Man(a1-6)[GlcNAc(b1-2)Man(a1-3)]Man(b1-4)GlcNAc(b1-4)[Fuc(a1-6)]GlcNAc
# In short: as §1
# [27] = target: GlcNAc(b1-2)[GlcNAc(b1-6)]Man(a1-6)[GlcNAc(b1-4)][GlcNAc(b1-2)Man(a1-3)]Man(b1-4)GlcNAc(b1-4)GlcNAc
# In short: as §1
# [28] = target: GlcNAc(b1-3)Fuc
# In short: as §1
# [29] = target: GlcNAc(b1-3)Gal
# In short: as §1
# [30] = target: GlcNAc(b1-3)Gal(b1-3)GalNAc
# In short: as §1
# [31] = target: GlcNAc(b1-3)Gal(b1-4)Glc
# In short: as §1
# [32] = target: GlcNAc(b1-3)Gal(b1-4)GlcNAc
# In short: as §1
# [33] = target: GlcNAc(b1-3)Gal(b1-4)GlcNAc(b1-2)Man(a1-3)[GlcNAc(b1-3)Gal(b1-4)GlcNAc(b1-2)Man(a1-6)]Man(b1-4)GlcNAc(b1-4)GlcNAc
# In short: as §1
# [34] = target: GlcNAc(b1-3)Gal(b1-4)GlcNAc(b1-2)Man(a1-3)[GlcNAc(b1-3)Gal(b1-4)GlcNAc(b1-2)Man(a1-6)]Man(b1-4)GlcNAc(b1-4)[Fuc(a1-6)]GlcNAc
# In short: as §1
# [35] = target: GlcNAc(b1-3)Gal(b1-4)GlcNAc(b1-2)[GlcNAc(b1-3)Gal(b1-4)GlcNAc(b1-6)]Man(a1-6)[GlcNAc(b1-3)Gal(b1-4)GlcNAc(b1-2)Man(a1-3)]Man(b1-4)GlcNAc(b1-4)GlcNAc
# In short: as §1
# [36] = target: GlcNAc(b1-3)Gal(b1-4)GlcNAc(b1-3)Gal(b1-4)GlcNAc
# In short: as §1
# [37] = target: GlcNAc(b1-3)Gal(b1-4)GlcNAc(b1-3)Gal(b1-4)GlcNAc(b1-2)Man(a1-3)[GlcNAc(b1-3)Gal(b1-4)GlcNAc(b1-3)Gal(b1-4)GlcNAc(b1-2)Man(a1-6)]Man(b1-4)GlcNAc(b1-4)GlcNAc
# In short: as §1
binder,measurement,setting,value
B1,glycan array binding signal (z-score),[1],-0.062
same,glycan array binding signal (z-score),[2],-0.042
same,glycan array binding signal (z-score),[3],0.076
same,glycan array binding signal (z-score),[4],0.626
same,glycan array binding signal (z-score),[5],0.331
same,glycan array binding signal (z-score),[6],0.707
same,glycan array binding signal (z-score),[7],-0.797
same,glycan array binding signal (z-score),[8],-0.371
same,glycan array binding signal (z-score),[9],0.181
same,glycan array binding signal (z-score),[10],-0.189
same,glycan array binding signal (z-score),[11],-0.147
same,glycan array binding signal (z-score),[12],0.016
same,glycan array binding signal (z-score),[13],-0.148
same,glycan array binding signal (z-score),[14],1.93
same,glycan array binding signal (z-score),[15],-0.461
same,glycan array binding signal (z-score),[16],-0.89
same,glycan array binding signal (z-score),[17],-0.732
same,glycan array binding signal (z-score),[18],0.939
same,glycan array binding signal (z-score),[19],0.44
same,glycan array binding signal (z-score),[20],-0.13
same,glycan array binding signal (z-score),[21],-0.685
same,glycan array binding signal (z-score),[22],-0.539
same,glycan array binding signal (z-score),[23],-0.055
same,glycan array binding signal (z-score),[24],-0.242
same,glycan array binding signal (z-score),[25],0.212
same,glycan array binding signal (z-score),[26],-0.199
same,glycan array binding signal (z-score),[27],-0.287
same,glycan array binding signal (z-score),[28],-0.021
same,glycan array binding signal (z-score),[29],-0.71
same,glycan array binding signal (z-score),[30],0.127
same,glycan array binding signal (z-score),[31],-0.222
same,glycan array binding signal (z-score),[32],-0.094
same,glycan array binding signal (z-score),[33],0.166
same,glycan array binding signal (z-score),[34],0.393
same,glycan array binding signal (z-score),[35],0.313
same,glycan array binding signal (z-score),[36],-0.252
same,glycan array binding signal (z-score),[37],0.834
